Reference: PMC5096715
Results are given in words; binding and its absence hold for the method and conditions named. Some entries that bind do so weakly or less than the wild type. One block for each substance: values may come before it.

Protein sequences, listed by entry. Tags and fused reporters are not part of them. Lines headed by an entry give the natural chain unless they say otherwise; changes in a name come on top. Chains listed by the source or under a name are the forms on record and can include a tag or linker. Residues count along the entry.
complement factor H-related protein 1 (CFHR1), recombinant wild-type (Q03591, residues 19-330): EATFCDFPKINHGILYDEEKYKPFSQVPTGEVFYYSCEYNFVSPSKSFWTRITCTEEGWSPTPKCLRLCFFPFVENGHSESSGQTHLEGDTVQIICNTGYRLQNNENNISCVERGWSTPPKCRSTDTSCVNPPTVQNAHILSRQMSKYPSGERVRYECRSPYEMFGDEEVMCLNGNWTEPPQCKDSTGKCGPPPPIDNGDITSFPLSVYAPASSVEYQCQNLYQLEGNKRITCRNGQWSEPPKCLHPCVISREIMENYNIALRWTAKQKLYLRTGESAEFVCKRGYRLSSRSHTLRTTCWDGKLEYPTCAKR
CFHR1 Mut3 (Y52S/S54Y/Y57E) (Q03591, form named): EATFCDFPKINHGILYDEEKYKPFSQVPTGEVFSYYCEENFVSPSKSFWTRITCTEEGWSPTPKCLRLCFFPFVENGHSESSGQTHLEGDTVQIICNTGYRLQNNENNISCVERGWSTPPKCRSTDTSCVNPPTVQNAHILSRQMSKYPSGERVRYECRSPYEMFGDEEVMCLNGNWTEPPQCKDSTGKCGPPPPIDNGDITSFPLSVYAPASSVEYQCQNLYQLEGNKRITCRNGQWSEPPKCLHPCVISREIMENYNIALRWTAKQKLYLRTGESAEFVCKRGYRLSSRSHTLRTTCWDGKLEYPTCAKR
CFHR1 Mut2 (Q238A/Y241A) (Q03591, form named): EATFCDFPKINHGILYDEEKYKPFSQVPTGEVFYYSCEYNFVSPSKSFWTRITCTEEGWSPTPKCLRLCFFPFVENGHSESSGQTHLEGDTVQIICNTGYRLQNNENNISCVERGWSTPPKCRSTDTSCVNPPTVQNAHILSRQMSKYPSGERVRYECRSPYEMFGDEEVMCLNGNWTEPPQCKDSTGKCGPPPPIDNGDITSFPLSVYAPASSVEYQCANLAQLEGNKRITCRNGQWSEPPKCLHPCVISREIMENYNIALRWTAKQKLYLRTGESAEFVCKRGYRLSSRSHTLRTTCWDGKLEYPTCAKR
CFHR1 Mut1 (N216A/D218A) (Q03591, form named): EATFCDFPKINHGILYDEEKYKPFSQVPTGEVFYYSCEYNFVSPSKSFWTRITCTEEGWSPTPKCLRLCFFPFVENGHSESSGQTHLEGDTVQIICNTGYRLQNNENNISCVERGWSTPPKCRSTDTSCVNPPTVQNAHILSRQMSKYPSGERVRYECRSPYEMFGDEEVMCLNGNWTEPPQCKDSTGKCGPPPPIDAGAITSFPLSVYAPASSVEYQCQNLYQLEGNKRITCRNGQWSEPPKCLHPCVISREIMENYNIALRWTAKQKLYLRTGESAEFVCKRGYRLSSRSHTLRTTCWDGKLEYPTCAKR
wild-type C3d, recombinant (residues 996-1306 of human C3) (P01024, residues 996-1306): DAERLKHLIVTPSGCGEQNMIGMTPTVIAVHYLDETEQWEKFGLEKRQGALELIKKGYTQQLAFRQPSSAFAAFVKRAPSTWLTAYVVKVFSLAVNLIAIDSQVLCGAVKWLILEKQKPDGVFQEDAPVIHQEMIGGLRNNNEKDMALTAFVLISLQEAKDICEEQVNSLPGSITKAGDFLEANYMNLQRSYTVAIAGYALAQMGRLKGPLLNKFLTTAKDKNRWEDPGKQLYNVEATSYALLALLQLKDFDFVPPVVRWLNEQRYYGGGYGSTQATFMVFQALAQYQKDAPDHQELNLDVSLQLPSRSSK
C3d K1105A (P01024, form named): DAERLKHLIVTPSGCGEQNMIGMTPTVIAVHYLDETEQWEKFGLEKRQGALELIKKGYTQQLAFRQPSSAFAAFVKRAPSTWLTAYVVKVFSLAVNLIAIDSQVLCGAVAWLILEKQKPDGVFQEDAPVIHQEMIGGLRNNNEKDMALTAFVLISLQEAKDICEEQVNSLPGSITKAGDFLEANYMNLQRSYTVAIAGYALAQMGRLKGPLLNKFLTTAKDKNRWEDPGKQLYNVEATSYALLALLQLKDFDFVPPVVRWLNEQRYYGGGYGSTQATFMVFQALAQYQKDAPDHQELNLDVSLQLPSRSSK
C3d E1110A/D1115A (P01024, form named): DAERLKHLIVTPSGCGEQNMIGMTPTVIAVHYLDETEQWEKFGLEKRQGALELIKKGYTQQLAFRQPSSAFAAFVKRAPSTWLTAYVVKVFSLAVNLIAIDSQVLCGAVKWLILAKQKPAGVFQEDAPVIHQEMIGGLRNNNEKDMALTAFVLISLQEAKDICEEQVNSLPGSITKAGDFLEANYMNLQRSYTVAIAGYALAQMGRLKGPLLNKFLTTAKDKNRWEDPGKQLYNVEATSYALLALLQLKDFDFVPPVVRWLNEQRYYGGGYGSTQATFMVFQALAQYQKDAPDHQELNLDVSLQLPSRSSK
C3d P1114L (P01024, form named): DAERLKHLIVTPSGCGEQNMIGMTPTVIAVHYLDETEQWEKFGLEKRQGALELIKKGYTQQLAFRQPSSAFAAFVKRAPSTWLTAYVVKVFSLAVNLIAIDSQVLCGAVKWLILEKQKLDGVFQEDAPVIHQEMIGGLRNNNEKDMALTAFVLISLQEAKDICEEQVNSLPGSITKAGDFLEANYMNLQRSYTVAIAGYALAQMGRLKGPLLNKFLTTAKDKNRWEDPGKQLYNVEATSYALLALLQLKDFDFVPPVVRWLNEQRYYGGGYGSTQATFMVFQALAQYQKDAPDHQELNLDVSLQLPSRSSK

How the values were obtained:
[1] = molecular target: CFHR1 Mut3 (Y52S/S54Y/Y57E) (human) (UniProt Q03591); assay: SEC; preparative HiPrep 16/60 Sephacryl S200 column in DPBS pH 7.4; both purified
[2] = molecular target: wild-type C3d, recombinant (residues 996-1306 of human C3) (human) (UniProt P01024); assay: ELISA; plates coated overnight at 4°C with 14.1 pmols of wild-type or mutant C3d or 5.5 pmols of C3b in 50 mM sodium bicarbonate pH 8.8; blocked with 1% BSA; wild-type or mutant CFHR1 at 1.04-0.008 μM in DPBS, one hour, room temperature; detected with HRP anti-His6 and ABTS; OD405 normalised to wild-type CFHR1 at 1.04 μM; both purified
[3] = molecular target: complement factor H-related protein 1 (CFHR1), recombinant wild-type (human) (UniProt Q03591); assay: pull-down; C3d (1.1 nmols) and CFHR1 (0.8 nmols) in DPBS with Heparin Sepharose 6 Fast Flow, 30 minutes, room temperature; each protein alone as control; eluted with DPBS plus 1M NaCl; SDS PAGE, Colloidal Blue stain; both purified
[4] = molecular target: complement component C3c, serum-derived (human) (UniProt P01024); assay: ELISA; plates coated overnight at 4°C with 18, 36 and 72 pmols of C3c in 50 mM sodium bicarbonate pH 8.8; blocked with 1% BSA; wild-type CFHR1 at 1.04-0.008 μM in DPBS, one hour, room temperature; HRP anti-His6 and ABTS; both purified
C3d K1105A (human) = C3d K1105A (human) (UniProt P01024); assay: ELISA; plates coated overnight at 4°C with 14.1 pmols of wild-type or mutant C3d or 5.5 pmols of C3b in 50 mM sodium bicarbonate pH 8.8; blocked with 1% BSA; wild-type or mutant CFHR1 at 1.04-0.008 μM in DPBS, one hour, room temperature; detected with HRP anti-His6 and ABTS; OD405 normalised to wild-type CFHR1 at 1.04 μM; both purified
[5] = molecular target: C3d E1110A/D1115A (human) (UniProt P01024); assay: as above
C3d P1114L (human) = C3d P1114L (human) (UniProt P01024); assay: as above

binding [1]: no binding | binding [2]: no binding (tested: 1.04 μM)
Substance: CFHR1 Mut3 (Y52S/S54Y/Y57E) (from UniProt Q03591 19-330)

binding [3]: binds
Substance: wild-type C3d, recombinant (residues 996-1306 of human C3) (from UniProt P01024 996-1306) (domain or fragment)

binding [4]: no binding (tested: 0.008 μM -1.04 μM) | binding [2]: binds | binding (C3d K1105A (human)): no binding (tested: 1.04 μM) | binding [5]: no binding (tested: 1.04 μM) | binding (C3d P1114L (human)): no binding (tested: 1.04 μM)
Substance: complement factor H-related protein 1 (CFHR1), recombinant wild-type (from UniProt Q03591 19-330)

binding [2]: no binding (tested: 1.04 μM)
Substance: CFHR1 Mut2 (Q238A/Y241A) (from UniProt Q03591 19-330)

binding [2]: no binding (tested: 1.04 μM)
Substance: CFHR1 Mut1 (N216A/D218A) (from UniProt Q03591 19-330)
